Experimental data reported in PubChem BioAssay AID1508642 (National Center for Advancing Translational Sciences (NCATS), 2021).
Screen size: about 43,000 compounds; about 200 (0.47%) were called active. Roughly 12% stayed inconclusive and do not appear here. The call rests on the fitted dose curve; in most records, active means well fitted cell-killing curve with a large enough effect; inconclusive means small, poorly fitted or top-dose-only effect, or effect the other way; inactive means flat fitted curve, though single readings scatter. This is one part of the list.

Assay: Cell viability qHTS assay in S16 Pmp22-F2sN cells; further: nearly all actives have a fitted effect of over 65% in size
Settings: S16 Pmp22-F2sN Schwann cells (luciferase reporters placed in the Pmp22 gene) viability, CellTiter-Glo, 24 h; series mostly up to 57.5 µM; activity change, negative = cytotoxicity: at the top concentration
Summary of the method: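 Luminescence from CellTiter-Glo, read by CCD camera after a 15 min room-temperature incubation, served as the viability signal. Reporter Schwann cells (S16 Pmp22-F2sN) had been treated with pin-transferred compounds for 24 h at 37C.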
On the % scale 0 is the no-effect control and ±100 the full control effect.

| Structure (SMILES) | activity change, negative = cytotoxicity |
| --- | --- |
| COc1ccc2c(c1)CCc1c(C(=O)Nc3ccc(OC)cc3OC)noc1-2 | inactive: -15.1% |
| COc1ccccc1NC(=O)c1sc2nc3n(c(=O)c2c1C)N=C(c1cccc(Br)c1)CS3 | inactive: 3.05% |
| CCCC12CN3CC(C)(CN(C1)C3c1ccc(OCc3ccccc3)cc1)C2=O (configuration not stated) | inactive: -1.57% |
| Cc1cccc(CNC(=O)CN2C(=O)CCn3nc(-c4cn(C)c5ccccc45)cc32)c1 | inactive: 2.78% |
| O=C(O)c1ccc(NC(=O)c2ccc(Br)c(S(=O)(=O)N3CCCC3)c2)cc1 | inactive: 10.2% |
| CCOc1ccc(NC(=O)Cc2c[nH]c3ccccc23)cc1 | inactive: 7.54% |
| CCN1C(=O)C(Cc2nc3ccccc3c(=O)n2C)c2cc(C)ccc21 (configuration not stated) | inactive: 1.88% |
| O=C(Nc1ccc(Cl)cc1)c1cc(S(=O)(=O)NC2CCCCCC2)ccc1F | inactive: -25.5% |
| O=C(CN1CCN(Cc2ccccc2Cl)C1=O)NCCc1ccc(Cl)cc1 | inactive: 17.4% |
| Cc1ccc(-c2csc3ncnc(Nc4ccc(C(=O)O)cc4)c23)cc1 | inactive: -2.06% |
| COc1ccccc1-c1nc2cc(NC(=O)c3ccccc3Cl)ccc2o1 | inactive: 30.9% |
| CN(C(=O)Cn1nnc(-c2ccc(S(C)(=O)=O)cc2)n1)c1ccccc1 | inactive: 0.811% |
| Cc1ccccc1NCc1nc2ccccc2n1CCOc1ccccc1 | inactive: -29.7% |
| CCN1C(=O)c2ccccc2Sc2ccc(NC(=O)c3ccc(C#N)cc3)cc21 | inactive: -3.48% |
| COc1ccc(NC(=O)CSc2oc(-c3ccco3)nc2S(=O)(=O)c2ccccc2)c(OC)c1 | inactive: 23.3% |
| Cc1c(C(=O)N(C)C)sc2c1c(=O)n(-c1ccccc1C(F)(F)F)c(=O)n2Cc1cccc(F)c1 | inactive: -3.89% |
| COc1ccc(C(=O)Nc2nc3c(s2)Cc2cc(OC)ccc2-3)cc1 | inactive: 12.9% |
| Cc1ccc2c(c1)N(C(=O)N1CCC(C(=O)NCc3ccccc3F)CC1)CC(C)O2 (configuration not stated) | inactive: -12.5% |
| Cc1cccc(NC(=O)c2sc(-n3nc(C)c(CCC(C)C)c3C)nc2C)c1 | inactive: -3.02% |
| CCOc1ccc(NC(=O)CCSc2nc(-c3ccc4c(c3)OCO4)cc(C(F)(F)F)n2)cc1 | inactive: -4.66% |
| COc1ccc(-n2c3c(cc(-c4nc(-c5ccc(Cl)cc5)cs4)c2=O)C(=O)CC(C)(C)C3)cc1Cl | inactive: 2.33% |
| COc1ccc(OC)c(NC(=O)N2CCN(Cc3nc4ccc(C)cc4o3)CC2)c1 | inactive: 19.1% |
| COc1ccc(CCNc2nc3cc(OC)c(OC)cc3c3nc(-c4cccnc4)nn23)cc1OC | inactive: 5.37% |
| O=S(=O)(c1ccccc1)c1nc(-c2ccccc2F)oc1N1CCOCC1 | inactive: -16.7% |
| COc1ccc(-c2cn3c(n2)sc2cc(C(=O)Nc4ccc(C)cc4C)ccc23)cc1 | inactive: 5.58% |

| Structure (SMILES) | activity change, negative = cytotoxicity |
| --- | --- |
| COc1cc2ccccc2cc1C(=O)Nc1ccc2oc(-c3cccc(C)c3)nc2c1 | inactive: 4.65% |
| CCCCc1nn2c(=O)cc(COC(=O)c3ccccc3NC(=O)c3cccc(C)c3)nc2s1 | inactive: -4.09% |
| Cc1cccc(NC(=O)c2c(C)oc3ncnc(N4CCCCC4)c23)c1C | inactive: 0.189% |
| CCOC(=O)N1CCN(C(=O)Cn2ncc3c4ccccc4n(Cc4ccc(F)cc4)c3c2=O)CC1 | inactive: -17.8% |
| CCOC(=O)c1c(NC(=O)COc2ccc(Br)cc2)sc(C(C)=O)c1C | inactive: -22.6% |
| COc1ccccc1-c1nnc(C2CCN(S(=O)(=O)c3ccc(F)c(C)c3)CC2)o1 | inactive: 2.2% |
| O=C(COc1ccc(F)cc1)Nc1ccc(Cl)c(-c2nc3ccccc3[nH]2)c1 | inactive: 11.7% |
| Cc1noc(C)c1S(=O)(=O)NCCc1csc2nc(-c3ccc(Cl)cc3)nn12 | inactive: -18.4% |
| Cc1ccc(C(=O)NCC(c2cccnc2)N2CCc3ccccc3C2)cc1C (configuration not stated) | inactive: -14.1% |
| CCOc1ccc(C(=O)c2c(N)c(-c3nc(-c4ccc(OCC)cc4)cs3)c3ccccn23)cc1 | inactive: -3.89% |
| Cc1nc(-c2ccc(F)cc2)sc1CCNC(=O)c1ccc(C(C)(C)C)cc1 | inactive: 2.7% |
| Cc1ccc(Cl)cc1NS(=O)(=O)c1ccc(N2CCCCS2(=O)=O)cc1 | inactive: 14.2% |
| CC(=O)Nc1cccc(-c2cn3cccnc3n2)c1 | inactive: 7.38% |
| Cc1ccc(NC(=O)Cn2c(=O)n(Cc3ccccc3)c(=O)c3c2c2cc(C)ccc2n3C)cc1 | inactive: 5.12% |
| COc1ccc2nc(NC(=O)c3cc(=O)c4cc(C)c(C)cc4o3)sc2c1 | inactive: -5.58% |
| CCOc1ccc(N2CC(c3nc4ccccc4n3CCOc3ccccc3)CC2=O)cc1 (configuration not stated) | inactive: 4.2% |
| Cc1nn(-c2ccccc2)c2sc(C(=O)Nc3cccc(Br)c3)cc12 | inactive: 9.71% |
| Cc1nc2ncnn2c(C)c1CCC(=O)NCc1cccc(Cl)c1 | inactive: 1.05% |
| Cc1ccc(NC(=O)c2cc(S(=O)(=O)N3CCCCC3)c[nH]2)cc1F | inactive: -6.65% |
| COc1ccc(C2C=C(c3ccccc3)Nc3nc(NC(=O)/C=C/c4ccc(Cl)cc4)nn32)cc1 (configuration not stated) | inactive: 10.3% |
| CCC(=O)N1CCc2cc(S(=O)(=O)CCC(=O)NCc3ccc(OC)cc3)ccc21 | inactive: 6.74% |
| O=C(CSc1nc2c(cnn2-c2ccc(F)cc2)c(=O)[nH]1)Nc1ccccc1C(F)(F)F | inactive: -0.333% |
| COc1ccccc1N1CCN(C(=O)c2cc3c(=O)oc4ccccc4c3s2)CC1 | inactive: -10.1% |
| COc1ccccc1NC(=O)C1=C(C)Nc2nc(SCc3cccc(F)c3)nn2C1c1ccc(C(=O)O)cc1 (configuration not stated) | inactive: -1.04% |
| O=C(c1cccc(Cl)c1)N1CCC(c2nc3ccccc3o2)CC1 | inactive: -5.63% |

| Structure (SMILES) | activity change, negative = cytotoxicity |
| --- | --- |
| O=C(Cn1c(=O)n2nc(-c3cccc(F)c3)nc2c2ccccc21)N1CCN(c2ccccc2F)CC1 | inactive: 2.33% |
| CC1CCN(C(=O)C(C)Sc2nc(-c3ccccc3)cc(C(F)(F)F)n2)CC1 (configuration not stated) | inactive: -26% |
| COc1ccc(OC)c(NC(=O)c2c(C)oc3ncnc(N4CCOCC4)c23)c1 | inactive: -1.85% |
| Cc1cccc(-c2nc(SCC(=O)N(C)c3ccccc3)c3c(=O)n(C)c(=O)n(C)c3n2)c1 | inactive: -3.31% |
| CCCN1C(=O)C2(c3ccccc31)c1c(oc3ccccc3c1=O)C(=O)N2CCCOC(C)C (configuration not stated) | inactive: -4.43% |
| O=C(O)c1ccc(C2Nc3ccccc3-c3nnc(SCc4ccc(Cl)cc4)nc3O2)cc1 (configuration not stated) | inactive: 12.5% |
| Cn1c(=O)cc(SCC(=O)N2CCN(c3ccccc3)CC2)c2ccccc21 | inactive: -11.8% |
| COc1cc(OC)c(NC(=O)N2CC=C(c3c[nH]c4ccccc34)CC2)cc1Cl | inactive: -4.25% |
| COc1cccc(C(=O)Nc2ccc(C(=O)OCc3cc(=O)n4nc(C5CC5)sc4n3)cc2)c1 | inactive: -0.822% |
| Cc1ccc(-c2cc(C(F)(F)F)n3ncc(-c4ccc(Cl)cc4)c3n2)cc1 | inactive: 4.68% |
| CCOC(=O)C1CCN(C(=O)c2ccc3c(c2)N=C(CC)c2cc(C)ccc2S3)CC1 | inactive: -13.2% |
| CCCCn1c(=O)nc2n(-c3ccc(F)cc3)c3ccccc3cc-2c1=O | inactive: 13% |
| CC(Sc1nc2c([nH]c3ccccc32)c(=O)n1-c1ccccc1)c1ccccc1 (configuration not stated) | inactive: 18.3% |
| Cc1cc(F)ccc1NC(=O)CCSc1nc(-c2ccco2)cc(C(F)(F)F)n1 | inactive: -26.9% |
| COC(=O)COc1ccc(Oc2nc(NC(C)(C)C)nc(N(C)C)n2)nn1 | inactive: -2.06% |
| COc1ccc(-c2cc3ccc(O)c(CN4CCCC4)c3oc2=O)cc1OC | inactive: -12.6% |
| Cc1ccc(C)c(CNC(=O)c2sc3ncnc(N(C)C4CCCCC4)c3c2C)c1 | inactive: 4.38% |
| CCn1c(CC2C(=O)N(C)c3ccc(Br)cc32)nc2ccccc2c1=O (configuration not stated) | inactive: -20.6% |
| CCc1cc2c(cc3c(=O)n(CC(=O)NCCOC)nc(CC)n32)s1 | inactive: 19.1% |
| Cc1ccc(C(=O)NC2(C(F)(F)F)N=C(c3ccccc3)N(C3CCCCC3)C2=O)cc1 (configuration not stated) | inactive: 3.48% |
| COc1ccc(CNC(=O)c2cn(-c3cccc(OC)c3)c(=O)c3ccccc23)cc1 | inactive: 9.66% |
| COc1ccc(C(=O)NCC(c2ccc3c(c2)OCO3)N2CCOCC2)cc1OC (configuration not stated) | inactive: -8.75% |
| COc1cc(C)ccc1OCCSc1nc2ccc(NC(C)=O)cc2s1 | inactive: -0.105% |
| CCCCCn1c(=O)c2c(nc3n2CCN3c2ccc(Br)cc2)n(C)c1=O | inactive: 29.2% |
| CCOC(=O)c1ccc(NC(=O)Cn2cnc3sc(C(=O)OCC)c(C)c3c2=O)cc1 | inactive: -1.82% |

| Structure (SMILES) | activity change, negative = cytotoxicity |
| --- | --- |
| CCc1ccc(NC(=O)CSc2nc3c([nH]c4ccccc43)c(=O)n2-c2cccc(OC)c2)cc1 | inactive: 7.4% |
| CCC(Sc1nnc2c3ccccc3n(C)c2n1)C(=O)Nc1nnc(C(C)C)s1 (configuration not stated) | inactive: 3.25% |
| CCOc1ccc(NC(=O)CSc2nc(=O)[nH]c3c2CCC3)cc1 | inactive: 6.45% |
| O=c1c(=O)n(Cc2ccc(Cl)cc2)ccn1Cc1ccc(F)cc1 | inactive: 3.02% |
| Cc1ccc2c(c1)-c1c(cnn1CC(=O)N1CCN(c3ccccc3F)CC1)CO2 | inactive: 0.0062% |
| COCCCNC(=O)c1cnc2sc(N3CCCCCC3)nn2c1=O | inactive: 6.59% |
| COc1cccc(NC(=O)CCc2nc3c(C)nn(-c4ccc(C)cc4)c3n(C)c2=O)c1 | inactive: 0.557% |
| CCCCN(CCCNC(=O)CN1N=C(c2ccc(C)cc2)CCC1=O)c1ccccc1 | inactive: -8.48% |
| CCN(CC)C(=O)CSc1nc2ccsc2c(=O)n1Cc1ccccc1Cl | inactive: -3.34% |
| Cc1cc(C)n2c(Nc3ccc(C(C)C)cc3)c(-c3ccsc3)nc2n1 | inactive: -9.98% |
| COc1cccc(OCC(=O)NCCS(=O)(=O)N2CCN(c3ccccc3F)CC2)c1 | inactive: -4.12% |
| Cc1oc2ncn(CC(C)C)c(=O)c2c1C(=O)NCCc1ccccc1 | inactive: -10.9% |
| Cc1ccc(-c2nc(CNC(=O)Nc3ccccc3)c(C)o2)cc1 | inactive: -19.4% |
| COc1ccc(-c2cn3cccnc3n2)cc1NC(=O)Cc1ccccc1 | inactive: -6.65% |
| Cc1ccc(NC(=O)Cn2c(=O)oc3cc(S(=O)(=O)N4CCCCC4)ccc32)c(Cl)c1 | inactive: -1.97% |
| c1ccc(-c2noc(-c3cccnc3NCc3ccco3)n2)cc1 | inactive: 21% |
| COCCNC(=O)Cn1c(=O)n(CCCCCC(=O)NCc2ccccc2Cl)c(=O)c2sccc21 | inactive: 8.39% |
| Cc1c(-c2cccc(NC(=O)Nc3ccc(Cl)cc3)c2)nc2ncccn12 | inactive: -7.09% |
| COc1ccccc1-c1noc(-c2ccc(NC3CCCCC3)c([N+](=O)[O-])c2)n1 | inactive: -3.71% |
| CC(C)(C)C1CCc2c(sc3nc(-c4cc5ccccc5oc4=O)[nH]c(=O)c23)C1 (configuration not stated) | inactive: 18.5% |
| CCN(CC)CCCNC(=O)CCCn1ncn2c(cc3occc32)c1=O | inactive: 25.2% |
| CCOC(=O)C1CCCN(C(=O)Cn2ncc3c(C)n(Cc4ccccc4Cl)c(C)c3c2=O)C1 (configuration not stated) | inactive: -2.68% |
